Experimental data published in PubChem BioAssay AID1508624 (National Center for Advancing Translational Sciences (NCATS), 2021).
Screen size: about 48,000 compounds; about 120 (0.25%) were called active. About 4% were inconclusive and are not listed. Calls follow the shape of the dose curve; as a rule, active = well fitted activation curve with a large enough effect; inconclusive = small, poorly fitted or top-dose-only effect, or another doubt; inactive = no such curve, though single readings can be large or run the other way. The list shows a part of the results.

Assay: Primary qHTS for Identification of Small Molecule Activators of Huntingtin-Antisense Promoter Activity; also: nearly all actives have a fitted effect of over 55% in size
Settings: HEK293 HTT-AS promoter firefly luciferase reporter, 24 h; series mostly up to 57.5 µM; activity change, positive = activation: at the top concentration
Summary of the method: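 Firefly luciferase readout (Dual-Glo, 10 min RT) after 24 h, 37 °C compound exposure (final up to 57.5 uM) of HEK293 reporter cells cultured 24 h beforehand; PTC124 at 50 uM final as control inhibitor; activity scaled vehicle 0%, zero RLU -100%.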

| SMILES | activity change, positive = activation |
| --- | --- |
| O=[N+]([O-])c1cc(-c2nc(-c3ccccc3)no2)ccc1N1CCN(c2ccccc2)CC1 | inactive: -4.99% |
| Cc1ccc(CNC(=O)C2CCN(c3nc4ccccc4n(C)c3=O)CC2)cc1 | inactive: -0.148% |
| CCOC(=O)CSc1nc2c(sc3ccccc32)c(=O)n1CCc1ccccc1 | inactive: 1.05% |
| Cn1cc(S(=O)(=O)N2CCCCCC2)cc1C(=O)N1CCN(c2cccc(Cl)c2)CC1 | inactive: -37.7% |
| Cc1ccc(NC(=O)Cn2nnc(-c3nc(-c4ccncc4)no3)c2N)cc1 | inactive: -0.267% |
| CCCOc1ccc(CNC(=O)C(CC)n2nc(C)c3sc4ccccc4c3c2=O)cc1 (stereo unspecified) | inactive: -14.7% |
| CCOc1ccc2nc(C)cc(Nc3ccccc3OCC)c2c1 | inactive: 2.37% |
| Cc1ccc(Cl)cc1N1CCN(C(=O)CCC(=O)Nc2ccc3nc(N4CCC(C)CC4)cc(C)c3c2)CC1 | inactive: -13.4% |
| CC(C)C[C@H](NC(=O)[C@@H](NC(=O)c1cccc(-c2ccccc2)n1)[C@@H](C)O)B(O)O | inactive: -46.1% |
| CCOC(=O)c1c(C)oc2nc(C)nc(NCc3ccc(Cl)cc3)c12 | inactive: -4.79% |
| COc1ccc(-c2cc3ccc(O)c(CN4CCOCC4)c3oc2=O)cc1 | inactive: 9.34% |
| CC(=O)N1CCc2cc(Br)cc(S(=O)(=O)N3CCC(C(=O)N(C)c4cc(C)ccc4C)CC3)c21 | inactive: 3.99% |
| Cc1cccc(NC(=O)c2nc(S(C)(=O)=O)ncc2Cl)c1 | inactive: -96.7% |
| COc1cc(NC(=O)c2ccccc2)ccc1NC(=O)c1cc2ccccc2o1 | inactive: -8.55% |
| Cc1cccc(NC(=O)CSc2nc(-c3ccco3)nc3cc(=O)[nH]n23)c1 | inactive: -18.2% |
| COc1ccc(-c2ccc3c(N)c(C(=O)NCc4ccc(Cl)cc4)sc3n2)cc1 | inactive: -3.68% |
| COC(=O)c1c(SC)nc2ccccc2c1OCc1ccccc1C | inactive: -13.2% |
| O=C(CCn1c(=O)c2ccccc2n(Cc2ccc(F)cc2Cl)c1=O)NCc1ccc2c(c1)OCO2 | inactive: -5.79% |
| CCc1ccc(NC(=O)C2CCN(S(=O)(=O)c3ccc4[nH]c5c(c4c3)CCCCC5)CC2)cc1 | inactive: -24.1% |
| Nc1nc2ccc(OC(F)(F)F)cc2s1 | inactive |
| Oc1cc(O)c2c(c1)O[C@H](c1ccc(O)c(O)c1)[C@H](O)C2 | inactive: 1.9% |
| Cc1cccc(OCC(=O)OCc2cc(=O)n3nc(C4CCCCC4)sc3n2)c1 | inactive: 2.23% |
| COc1ccc(C(=O)COC(=O)c2cccc(NC(=O)c3ccc(OC)c(OC)c3)c2)cc1 | inactive: -14.2% |
| CCOC(=O)C(CC)n1nc(C)n2c(cc3occc32)c1=O (stereo unspecified) | inactive: -15.1% |

| SMILES | activity change, positive = activation |
| --- | --- |
| COc1ccc(C(=O)c2cn(Cc3ccc(F)cc3)c3ccc(C)cc3c2=O)cc1 | inactive: -13.6% |
| CN1CCC(=C2c3ccccc3CCc3cccnc32)CC1 | inactive: -2.75% |
| COc1ccnc2c1CCCCC2S(=O)c1nc2ccccc2[nH]1 (stereo unspecified) | inactive: 0.921% |
| Cc1ccc(-c2nc3ccccn3c2Nc2ccc3c(c2)OCO3)cc1 | inactive: -1.87% |
| Cc1csc2nc(-c3cccc(NC(=O)c4ccccc4Cl)c3)cn12 | inactive: 1.47% |
| Cc1ccc(S(=O)(=O)NCC(c2ccc(N(C)C)cc2)N2CCOCC2)cc1 (stereo unspecified) | inactive: -23.1% |
| O=C(NC1CCCCCC1)C1CCN(C(=O)N2CCOc3ccccc32)CC1 | inactive: 11.4% |
| COCCNC(=O)c1c(C)oc2nc(C)nc(N3CCOCC3)c12 | inactive: -0.264% |
| COc1ccc(C2c3c(-c4c(C)cc(C)cc4O)n[nH]c3C(=O)N2Cc2ccco2)cc1 (stereo unspecified) | inactive: -40% |
| CCOC(=O)c1c(NC(=O)c2ccccc2Cl)sc2c1CCCC2 | inactive: -5.67% |
| O=C(NCCCN1CCN(c2ccc(F)cc2)CC1)Nc1ccc(Cl)cc1 | inactive: -25.6% |
| COc1cccc(-c2nc(CS(=O)(=O)CC(=O)NCc3ccc(C)cc3)c(C)o2)c1 | inactive: -8.43% |
| COc1ccc2c(c1)c(CC(=O)O)c(C)n2C(=O)c1ccc(Cl)cc1 | inactive |
| Cc1ccc(CN2C(=O)C(O)(c3c[nH]c4ccccc34)c3cc(Cl)ccc32)cc1 (stereo unspecified) | inactive: -27.6% |
| Cc1ccc2c(c1)NC(c1cccnc1)=NC(c1ccc(F)cc1)=N2 | inactive: 1.27% |
| CCOC(=O)c1c(-c2ccc(C)cc2)csc1NC(=O)c1nc(SCC)ncc1Cl | inactive: 23.5% |
| Cc1ccc(-n2c(=O)c3ccc(C(=O)NCc4ccccc4Cl)cc3n(Cc3ccccc3F)c2=O)cc1 | inactive: -13.4% |
| COc1cccc(NS(=O)(=O)c2ccc3[nH]cc(C(=O)N4CCCCCC4)c(=O)c3c2)c1 | inactive: -1.07% |
| CC1CCN(CCCNC(=O)c2cc(Sc3ccc(F)cc3)nc3ccccc23)CC1 | inactive: -25.1% |
| CCc1ccc(CN(Cc2cn[nH]c2-c2ccc(OC)cc2)C(=O)Nc2ccc(C)c(F)c2)cc1 | inactive: -20.6% |
| O=C(NC1CC(=O)N(c2cccc(F)c2)C1)C1CC1 (stereo unspecified) | inactive: -3.9% |
| Cc1ccc(NC(=O)c2oc3ccccc3c2NC(=O)c2ccccc2C)cc1 | inactive: -5.25% |
| COc1ccc(Cn2c(=O)c3cccnc3n(Cc3cccc(OC)c3)c2=O)cc1 | inactive: -30.4% |
| O=c1c2cc3c(cc2nc2sc(Nc4ccc(F)c(Cl)c4)nn12)OCO3 | inactive: -2.37% |

| SMILES | activity change, positive = activation |
| --- | --- |
| COc1cc(OC)c(N(C)C(=O)Cn2ncc3c([nH]c4ccccc43)c2=O)cc1Cl | inactive: -26.1% |
| Cc1nc(C)c(-c2ccc(SCC(=O)Nc3ccc(F)c(F)c3)nn2)s1 | inactive: -32.8% |
| Cc1ccc(NC(=O)c2cc(S(=O)(=O)N3CCCC(C)C3)cn2C)c(Br)c1 (stereo unspecified) | inactive: -37.9% |
| Cn1c(=O)c2c(-c3cccc(Br)c3)n(CCO)cc2n(C)c1=O | inactive: -16.8% |
| CCN1CCN(c2oc(/C=C/c3ccccc3OC)nc2C#N)CC1 | inactive: -7.15% |
| CCOC(=O)N1CCC(NC(=O)c2ccc3c(c2)N(Cc2ccc(F)cc2)C(=O)c2ccccc2S3(=O)=O)CC1 | inactive: -39.5% |
| Cc1ccc(CNC(=O)c2ccc3c(O)c(S(=O)(=O)c4ccccc4)c(=O)[nH]c3c2)cc1 | inactive: -5.83% |
| CCCCC(CC)COC(=O)c1ccccc1C(=O)O (stereo unspecified) | inactive: -20.5% [at 116 µM, percent change from vehicle, -100% = no light] |
| CCOc1ccc(NC(=O)C(NS(=O)(=O)c2ccc3c(c2)CCN3C(C)=O)C(C)C)cc1 (stereo unspecified) | inactive: -2.87% |
| CCOc1ccccc1NC(=O)c1nnn(CC(=O)Nc2ccc(OC)c(OC)c2)c1N | inactive: -15.4% |
| O=C(CSc1nc2ccccc2nc1Cc1ccc(Cl)cc1)NCCc1ccccc1 | inactive: -12.9% |
| Cn1nc(C(=O)NCc2ccc(Cl)cc2)c2c1-c1ccccc1SC2 | inactive: -2.43% |
| Cc1ccc(N(Cc2cccs2)C(=O)c2ccc(Br)o2)cc1 | inactive: -24.7% |
| Cc1cc(=O)n2nc(N3CCC(C(=O)Nc4ccc(C)c(Cl)c4)CC3)sc2n1 | inactive: -6.87% |
| Cc1c(C)c2c(c(C)c1O)CCC(C)(COc1ccc(CC3SC(=O)NC3=O)cc1)O2 (stereo unspecified) | inactive |
| COc1ccc(CNC(=O)Cc2c(C)c3c(cc(C)c4c(C)c(C)oc43)oc2=O)cc1 | inactive: -3.61% |
| CCSc1ncc(Cl)c(C(=O)Nc2nc3ccc(OC)cc3s2)n1 | inactive: -0.764% |
| COc1ccc(CNC(=O)CCS(=O)(=O)c2ccc3c(c2)oc(=O)n3C)cc1 | inactive: -1.46% [at 11.5 µM, percent change from vehicle, -100% = no light] |
| CCOc1cc(C2c3c(-c4ccc(Br)cc4)n[nH]c3C(=O)N2c2ccc(Cl)cc2)ccc1O (stereo unspecified) | inactive: -55% |
| CCn1cc(C(=O)OCC(=O)Nc2ccc(F)cc2F)c(=O)c2ccc(C)nc21 | inactive: -10.2% |
| Cc1cccc(-c2nc(Cn3c(=O)cc(-c4ccccc4)c4c(C)nn(C)c43)c(C)o2)c1 | inactive: -8.28% |
| CCCn1c2ccccc2c2cnn(CC(=O)NCCc3ccccc3)c(=O)c21 | inactive: -18.2% |
| COC(=O)c1ccc(Cn2c(=O)cc(C(F)(F)F)c3c(C)nn(C)c32)cc1 | inactive: -7% |
| CCOc1ccc(S(=O)(=O)N(CC(=O)NCCSc2ccccc2)c2ccccc2)cc1 | inactive: -9.01% |

| SMILES | activity change, positive = activation |
| --- | --- |
| CCN(c1ccc(OC)cc1)S(=O)(=O)c1ccc2[nH]c(=O)ccc2c1 | inactive: -16.3% |
| O=C(Cn1c2ncccc2c(=O)n1-c1ccccc1)Nc1ccc(F)c(F)c1 | inactive: -2.51% |
| O=C(NCc1ccc(Cl)cc1)C1CCCN(c2nc3ccccc3n3cccc23)C1 (stereo unspecified) | inactive: -30.9% |
| Cc1cc(N2CCCCC2)nc2ccc(NC(=O)/C=C/c3ccccc3Cl)cc12 | inactive: -16% |
| Cc1ccccc1Cn1c(=O)n(CCc2ccccc2)c(=O)c2ccccc21 | inactive: -24.7% |
| CN[C@@H]1CN(c2ccc3c(=O)c(C(=O)O)cn(-c4nccs4)c3n2)C[C@@H]1OC | inactive: -34.1% [at 25.1 µM, percent change from vehicle, -100% = no light] |
| COc1ccc(OC)c(C(C)NC(=O)Cn2c(=O)cc(C)c3c(C)nn(-c4ccc(C)cc4)c32)c1 (stereo unspecified) | inactive: -12.5% |
| Cc1ccc(C)c(N2CCN(Cc3csc(C)c3C)CC2)c1 | inactive: -16.6% |
| CCCCC(=O)Nc1ccc2nc(SCC(=O)N3CCCC3)sc2c1 | inactive: 7.68% |
| COc1ccc(CNC(=O)c2nn(-c3ccccc3C)nc2CO)cc1 | inactive: -16% |
| COc1cccc(CNC(=O)C(NS(=O)(=O)c2ccc3c(c2)CCN3C(C)=O)C(C)C)c1 (stereo unspecified) | inactive: -24.1% |
| CCOc1ccccc1CC1C(=O)Nc2ccc(Br)cc21 (stereo unspecified) | inactive: -61% |
| CC=C(C(=CC)c1ccc(O)cc1)c1ccc(O)cc1 | inactive: -35.1% |
| COc1ccc(-c2cn3nc(N4CCCC(C(=O)NCc5ccccc5Cl)C4)sc3n2)cc1 (stereo unspecified) | inactive: 18% |
| Cc1cccc(CNC(=O)CCn2ccc3cc(S(=O)(=O)N4CCCC4)ccc32)c1 | inactive: 0% |
| COc1ccc(OC)c(CCNC(=O)c2cnn(-c3ccccc3)c2C2CCN(C(=O)OC(C)(C)C)CC2)c1 | inactive: -29.9% |
| O=c1c(N2CCN(c3cccc(C(F)(F)F)c3)CC2)csc2ccc(Cl)cc12 | inactive: 8.23% |
| COc1cc(OC)cc(N2CCN(S(=O)(=O)c3ccc(-n4cnnn4)cc3)CC2)c1 | inactive: -13.1% |
| COC(=O)c1cc2oc3ccccc3c2n1Cc1cc(C)ccc1C | inactive: 0.129% |
| COC(c1ccccc1)(c1ccccc1)[C@H](Oc1nc(C)cc(C)n1)C(=O)O | inactive |
| CC(O)C1C(=O)N2C(C(=O)O)=C(SC3CNC(C(=O)N(C)C)C3)C(C)C12 (stereo unspecified) | inactive: -14.7% |
| Cc1nn(C)c2c1c(-c1ccccc1)cc(=O)n2C(C)C(=O)NCc1ccc(F)cc1 (stereo unspecified) | inactive: -11.2% |
| CCN1CCN(C(c2cccc(F)c2)c2c(O)cc(C)n(Cc3ccco3)c2=O)CC1 (stereo unspecified) | inactive: 5.04% |
| O=C1CC(c2ccccc2)Cc2[nH]c(=O)c(-c3nc(-c4ccc(Cl)cc4)cs3)cc21 (stereo unspecified) | inactive: -37.6% |
